According to the supplement of paper PMC10126150:
Sequences with one replicate were seen in a single cluster, so their values are uncertain.

System: ATP
Assay: switch fluorescence ratio, 500 uM ATP over buffer (Cy3 cluster intensity, sum of 5 cycles each) (fold (ratio)); higher = stronger signal-on switching upon ATP binding; sequences stand for … in TCGTCGGCAGCGTCAGATGTGTATAAGAGACAGTTTTTTTTTTTTTTTTTTTTTTTTT…TC
Details: aptamer strand: ATP DNA aptamer (quencher-CACCTGGGGGAGTATTGCGGAGGAAGG + anchor), 100 nM annealed; ATP concentration: 500 uM; one replicate
Procedure, shortened: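 Between each of five buffer/ATP cycles, the flow-cell was stripped with NaOH and re-annealed. Each cycle imaged Cy3-labelled switching-strand clusters, annealed to 100 nM quencher-labelled ATP aptamer on a modified Illumina MiSeq flow-cell, first in selection buffer and then after 15 min with 500 uM ATP at 22 °C. The fluorescence ratio is summed target-cycle over summed buffer-cycle Cy3 intensity per cluster, averaged per switch-domain sequence, with clusters outside 100-1000 RFU excluded.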
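Note: ATP exposure 15 min at 22 °C before imaging.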

| Sequence | switch fluorescence ratio |
| --- | --- |
| AATACATGGG | 0.994 |
| AATACCATTA | 1.02 |
| AATACCCGTG | 1.04 |
| AATACGCGGC | 1.18 |
| AATACTCACT | 1.45 |
| AATACTGACG | 1.16 |
| AATACTTTAG | 1 |
| AATAGAGAAG | 0.972 |
| AATAGCAAGT | 1.12 |
| AATAGCAGAT | 0.999 |
| AATAGGCCAT | 1 |
| AATAGGGGCC | 0.991 |
| AATAGGTCGA | 0.931 |
| AATAGTGCAT | 0.998 |
| AATATACTCG | 1 |
| AATATAGTCA | 1.02 |
| AATATCGCGT | 0.98 |
| AATATGTATT | 0.986 |
| AATATGTCCT | 1.03 |
| AATATTCTAA | 0.979 |
| AATATTGGCC | 1.06 |
| AATATTGTTT | 0.993 |
| AATATTTTAG | 1 |
| AATCAATGAA | 1.05 |
| AATCACACAG | 1.06 |
| AATCACGTCC | 1.11 |

| Sequence | switch fluorescence ratio |
| --- | --- |
| AATCAGATCA | 0.971 |
| AATCAGCCGA | 1.01 |
| AATCATCTCG | 1.07 |
| AATCATGTCC | 0.992 |
| AATCATTACT | 1.04 |
| AATCCACTGA | 1.04 |
| AATCCATGAA | 1.02 |
| AATCCCAAGT | 1 |
| AATCCCGAGC | 1.06 |
| AATCCGAACA | 1.05 |
| AATCCGAGGG | 0.966 |
| AATCCTCATG | 1.02 |
| AATCCTCGGA | 1.04 |
| AATCCTTCCG | 3.02 |
| AATCGAATTT | 1.02 |
| AATCGACTCC | 1.5 |
| AATCGATGCA | 0.964 |
| AATCGCCGC | 1.04 |
| AATCGCGATG | 1 |
| AATCGGTTAA | 0.995 |
| AATCGTACCC | 1.14 |
| AATCTAAGA | 0.954 |
| AATCTAATGC | 1.01 |
| AATCTAGATG | 1.05 |
| AATCTATGGT | 0.979 |
| AATCTGCTTA | 0.994 |

| Sequence | switch fluorescence ratio |
| --- | --- |
| AATCTGGAA | 1.01 |
| AATCTGTTAA | 1.02 |
| AATCTTAATG | 0.99 |
| AATCTTACGG | 1.05 |
| AATCTTATTC | 0.979 |
| AATCTTGAAC | 1.01 |
| AATGAAAAGC | 0.989 |
| AATGAACGGT | 1.02 |
| AATGAACTTG | 1 |
| AATGAAGTAA | 1.16 |
| AATGACAGCT | 0.974 |
| AATGACTTCC | 2.71 |
| AATGAGATGC | 0.979 |
| AATGAGGT | 1.04 |
| AATGCCGAAT | 1.03 |
| AATGCCTAAA | 0.998 |
| AATGCGTCGA | 1.01 |
| AATGCTCCAT | 1.02 |
| AATGCTCTAT | 0.973 |
| AATGGAGTGC | 0.987 |
| AATGGATTAT | 1.01 |
| AATGGCAAAG | 1.03 |
| AATGGCAAGC | 1.2 |
| AATGGCCGGT | 0.988 |
| AATGGCCGTC | 1.04 |
| AATGGCCGTT | 0.997 |

| Sequence | switch fluorescence ratio |
| --- | --- |
| AATGGCGTGG | 1.02 |
| AATGGCTCGG | 1.04 |
| AATGGCTGAT | 1.01 |
| AATGGCTT | 1.01 |
| AATGGCTTCC | 2.18 |
| AATGGGATGA | 0.967 |
| AATGGGGCT | 0.969 |
| AATGGGGGTC | 0.955 |
| AATGGGTAA | 0.985 |
| AATGGTCTAG | 0.985 |
| AATGGTTAAC | 0.979 |
| AATGTAATGC | 1.04 |
| AATGTACAGC | 1.07 |
| AATGTATTAA | 1.02 |
| AATGTCGTCG | 0.991 |
| AATGTCTATA | 1.02 |
| AATGTGAGAG | 1.01 |
| AATGTGCACA | 0.981 |
| AATGTGCTTT | 1.05 |
| AATGTGT | 0.961 |
| AATGTGTATA | 0.951 |
| AATGTTCGGC | 1.11 |
| AATGTTGCGA | 0.993 |
| AATGTTGGGC | 0.949 |
| AATGTTTAGG | 0.992 |
| AATTAAAGAG | 0.988 |

| Sequence | switch fluorescence ratio |
| --- | --- |
| AATTAAAGTG | 1.03 |
| AATTAAATGA | 0.96 |
| AATTAACGTG | 1.04 |
| AATTAACTTA | 0.96 |
| AATTAAGGCT | 1.01 |
| AATTAATCGT | 1 |
| AATTAATTCG | 1.01 |
| AATTACGGTA | 1.18 |
| AATTACTTG | 1.04 |
| AATTAGAGGT | 0.95 |
| AATTAGCGCT | 1.01 |
| AATTAGGGAC | 1.46 |
| AATTAGTCGT | 0.998 |
| AATTATCAGG | 0.97 |
| AATTATTGAA | 0.976 |
| AATTCAATG | 1.01 |
| AATTCAGAGA | 0.987 |
| AATTCGGTAG | 1.03 |
| AATTCGTTT | 0.973 |
| AATTCTGTTA | 1 |
| AATTCTTTGG | 0.993 |
| AATTGAATG | 0.988 |
| AATTGACATT | 0.981 |
| AATTGCTCGA | 1.01 |
| AATTGCTGGT | 1.02 |
| AATTGGATAC | 1.04 |

| Sequence | switch fluorescence ratio |
| --- | --- |
| AATTGGCAAA | 1.03 |
| AATTGGTAGT | 0.971 |
| AATTGGTGCC | 0.976 |
| AATTGTTAAA | 1 |
| AATTTAAAAT | 0.962 |
| AATTTACGCT | 1.05 |
| AATTTAGCAG | 0.984 |
| AATTTCATAC | 1.02 |
| AATTTCCAAG | 1.01 |
| AATTTCCGA | 1.07 |
| AATTTCTG | 1 |
| AATTTGGATA | 1.01 |
| AATTTTGATT | 0.977 |
| AATTTTTACC | 1.07 |
| AATTTTTTAG | 0.928 |
| ACAAAGAGGT | 0.977 |
| ACAAAGGACG | 0.929 |
| ACAAAGTCAG | 0.998 |
| ACAAATAGGC | 1.05 |
| ACAACAGTCC | 1.04 |
| ACAACATCCC | 1.02 |
| ACAACTAACA | 1.11 |
| ACAACTAGAG | 1.01 |
| ACAAGCAGAA | 1.08 |
| ACAAGCGGCC | 1.05 |
| ACAAGGACAT | 1.08 |

| Sequence | switch fluorescence ratio |
| --- | --- |
| ACAAGGCCTC | 1 |
| ACAAGGGGAT | 1.01 |
| ACAAGTACTA | 1.31 |
| ACAAGTTCT | 1.03 |
| ACAATAGGCT | 1.02 |
| ACAATATCCA | 0.994 |
| ACAATATGAA | 1.05 |
| ACAATATTTG | 0.981 |
| ACAATCGCTT | 0.979 |
| ACAATCGTA | 1 |
| ACAATGATGT | 0.96 |
| ACAATGTGG | 0.964 |
| ACAATTAACA | 1.02 |
| ACAATTATAA | 1.02 |
| ACAATTTGTG | 1.02 |
| ACACAAGTTT | 0.976 |
| ACACAATTTC | 1.06 |
| ACACACAGCA | 1.28 |
| ACACAGCTGG | 1.03 |
| ACACAGGGCT | 1.04 |
| ACACATAAG | 1.02 |
| ACACATTCTT | 1.03 |
| ACACCACATA | 1.27 |
| ACACCAGGCT | 1.15 |
| ACACCGATT | 1.04 |
| ACACCTATAT | 1.13 |

| Sequence | switch fluorescence ratio |
| --- | --- |
| ACACCTGGTA | 1.06 |
| ACACCTGTTT | 1.05 |
| ACACGACCCG | 1.08 |
| ACACGAGGCC | 1.08 |
| ACACGCCGT | 1.05 |
| ACACGGCGCC | 0.991 |
| ACACGGGCCC | 1.01 |
| ACACGGTTGT | 1.01 |
| ACACGTAGCT | 1.2 |
| ACACGTGATG | 1.03 |
| ACACTAAAGT | 1.02 |
| ACACTCGCTT | 1.03 |
| ACACTCTACT | 1.32 |
| ACACTGCGTC | 1.06 |
| ACACTTGTGC | 0.953 |
| ACAGAAACTC | 1.07 |
| ACAGACAAAA | 1.09 |
| ACAGACCGCC | 1.3 |
| ACAGACTGGT | 1.02 |
